Screen size: about 420,000 compounds; about 50,000 (12%) were called active. The inconclusive results got no clear call from the source; some entries with a clear call stand among them for comparison. The call rests on the fitted dose curve; in most records, active means well fitted inhibition curve with a large enough effect; inconclusive means small, poorly fitted or top-dose-only effect; inactive means flat fitted curve, though single readings scatter. No potency is given beside an inconclusive call; the fits are too rough.
Test: qHTS for Inhibitors of human tyrosyl-DNA phosphodiesterase 1 (TDP1): qHTS in cells in presence of CPT; further: nearly all actives have a fitted effect of over 55% in size
Settings: chicken DT40 Tdp1-/-;hTDP1 cells + 20 nM CPT, ATP luminescence, 48 h; activity change, negative = growth inhibition: at 46.2 µM (top of the series) unless noted
Summary of the method: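 Cell growth measured by CellTiter-Glo luminescence after a minimum 48 h, 37 C compound exposure with 20 nM CPT in Tdp1-knockout DT40 cells stably expressing hTDP1, seeded 400/well; qHTS titration format.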
On the % scale 0 is the no-effect control and ±100 the full control effect; potency means the concentration at half of the fitted maximal effect; tags describe the fitted curve by direction and shape.

Row | Compound | activity change, negative = growth inhibition | Potency
1 | Cc1ccccc1CNC(=O)Cn1ccc2cc(S(=O)(=O)N3CCCCC3)ccc21 | inconclusive: -30.1% [inhibitor] | 
2 | CC(C)(C)NC(=O)CN(Cc1ccccc1)S(=O)(=O)c1ccccc1 | inactive: -3.49% | 
3 | O=C(COC(=O)c1ccc(O)cc1O)NC(=O)c1ccccc1 | inactive: -17.2% | 
4 | Cc1cccc(NC(=O)C2CCN(S(=O)(=O)c3ccc4c(c3)NC(=O)CO4)CC2)c1 |  | inconclusive [inhibitor, single point]
5 | Cc1ccc(S(=O)(=O)N2CCOCC2)cc1C(=O)NCCCN1CCCC1=O | inactive: 0.463% | 
6 | CC(C)CCOc1ccc(/C=C2\CCn3c2nc2cc(C(=O)O)ccc2c3=O)cc1 |  | inconclusive [inhibitor, partial curve]
7 | CCCc1nn2c(=O)cc(COC(=O)c3cccs3)nc2s1 | inactive: -28.6% | 
8 | CCOc1ccc(C(=O)c2cn(CC(=O)Nc3ccc4c(c3)OCCO4)c3ccc(OC)cc3c2=O)cc1 |  | inconclusive [inhibitor, single point]
9 | CCC1(C)CC(C#N)(C#N)C(=O)NC1=O (stereo unspecified) | inactive: 6.38% | 
10 | COc1ccc2nc(NC(=O)C3CC(=O)N(c4ccc5c(c4)OCCO5)C3)sc2c1 (stereo unspecified) |  | inconclusive [inhibitor, single point]
11 | Cc1nn(Cc2cccc(C(=O)O)c2)c(C)c1[N+](=O)[O-] | inactive: -6.73% | 
12 | CCOC(=O)N1CCN(Cc2ccccc2Cl)CC1 | inactive: 0.389% | 
13 | COc1ccc([N+](=O)[O-])cc1NC(=O)Nc1cccc(Cl)c1 |  | active: 11.6 µM
14 | COc1ccc(N2CCN(C(=O)CC3NC4CCCCC4NC3=O)CC2)cc1 (stereo unspecified) | inactive: -1.96% | 
15 | O=C(c1cc2nc(-c3ccco3)cc(C(F)(F)F)n2n1)N1CCN(c2ccccn2)CC1 |  | active: 25.9 µM
16 | CCCCCCN1CCN(C2CN(C3CCCCC3)S(=O)(=O)C2)CC1 (stereo unspecified) |  | active: 16.4 µM
17 | Cn1c(Cl)cnc1C(O)(c1ccccc1)c1ccccc1 |  | inconclusive [inhibitor, single point]
18 | O=C(CN1CCN(S(=O)(=O)c2ccc(Br)s2)CC1)N1CCCCC1 |  | inconclusive [inhibitor, partial curve, poor fit]
19 | CN(C)CCNc1ncnc2c1ncn2[C@H]1CN(Cc2cccs2)C[C@@H](CO)O1 |  | inconclusive [inhibitor, partial curve]
20 | CCOC(=O)c1ccc(-n2c(CN(CC)CC)nc3ccc([N+](=O)[O-])cc3c2=O)cc1 |  | active: 18.4 µM
21 | CCOC(=O)N1CCC(NC(=O)c2ccc3c(c2)N(Cc2cc(C)ccc2C)C(=O)c2ccccc2S3(=O)=O)CC1 |  | inconclusive [inhibitor, single point]
22 | COC(=O)c1ccc(C23CC4(C2)[C@H](CN(Cc2cccnc2)[C@@H]4c2ccccc2)C3c2ccc(C(F)(F)F)cc2)cc1 (stereo partly specified) |  | active: 23.1 µM
23 | OCCN1CCN(c2ncnc3c2ncn3[C@H]2CN(Cc3ccc(F)cc3)C[C@@H](CO)O2)CC1 |  | inconclusive [inhibitor, partial curve]

Row | Compound | activity change, negative = growth inhibition | Potency
24 | CN(C)c1nc(-c2ccc3c(c2)OCO3)nc2ccccc12 |  | inconclusive [inhibitor, single point]
25 | Oc1ccc2ccccc2c1/C=N/Nc1nnc(-c2ncc[nH]2)c2ccccc12 |  | active: 5.17 µM
26 | CCOC(=O)c1c(C)nc2sc3c(=O)n(-c4ccc(C(C)=O)cc4)nnc3c2c1-c1ccc(OC)cc1 |  | inconclusive [inhibitor, partial curve]
27 | CCCCCn1c(=O)[nH]c2cc(C(=O)N3CCN(c4cc(Cl)ccc4C)CC3)ccc2c1=O |  | inconclusive [inhibitor, single point]
28 | COc1ccc(NC(=O)CSc2nc3ccccc3nc2Cc2ccc(C)cc2)cc1Cl |  | active: 13 µM
29 | CCOC(=O)c1c(C)n(OCc2ccccc2)c2ccc3nonc3c12 |  | inconclusive [inhibitor, single point]
30 | Cc1c(OCC(F)(F)F)ccnc1CSc1nc2ccccc2[nH]1 |  | inconclusive [inhibitor, single point]
31 | O=C(CSc1nc2ccccc2c(=O)[nH]1)Nc1ccc(S(=O)(=O)N2CCCC2)cc1 |  | active: 16.4 µM
32 | Cc1ccccc1C(=O)OCc1cc(=O)n2nc(C3CC3)sc2n1 | inactive: -14.3% | 
33 | Cc1ccc(C(=O)OCc2cc(=O)n3nc(-c4cccs4)sc3n2)cc1 | inactive: -10.2% | 
34 | C/C=C(/C)C(=O)O[C@@H]1Cc2c(ccc3ccc(=O)oc23)OC1(C)C |  | inconclusive [inhibitor, single point]
35 | CCOC(=O)c1c(S(=O)(=O)NCC(=O)Nc2cc(C)ccc2OC)c(C)n(C)c1C |  | inactive
36 | COc1ccc(S(=O)(=O)N2CCOC23CCN(S(=O)(=O)c2c(C)cc(C)cc2C)CC3)cc1 |  | inconclusive [inhibitor, single point]
37 | Nc1nc(-c2ccccc2)c(-c2ccc([N+](=O)[O-])cc2)s1 |  | inconclusive [inhibitor, single point]
38 | CC(NCCc1ccc(S(N)(=O)=O)cc1)C(=O)NCc1ccccc1 (stereo unspecified) | inactive: -21.1% | 
39 | Cc1cc(N/C=C\c2nnnn2-c2ccc(F)cc2)no1 | inactive: -5.64% | 
40 | O=C(Nc1nccs1)Oc1ccccc1 | inactive: -1.53% | 
41 | CCN(CC)c1ccc2cc(-c3nc(-c4ccc(Cl)cc4Cl)cs3)c(=O)oc2c1 | inactive: 1.68% | 
42 | CN(C)CCN(Cc1ccccc1)C(c1ccnc2ccccc12)c1nnnn1-c1ccc2c(c1)OCCO2 (stereo unspecified) |  | inconclusive [inhibitor, single point]
43 | O=C(C1=C(O)C(=O)N(CCN2CCOCC2)C1c1ccc(Br)cc1)c1cc2ccccc2o1 (stereo unspecified) |  | inconclusive [inhibitor, single point]
44 | COc1ccccc1NC(=O)Cn1c(=O)n(Cc2cccs2)c(=O)c2cccnc21 |  | active: 20.6 µM
45 | COc1cccc(CNC(=O)[C@@H]2CCCN2C(=O)[C@@H]2CCCN2C(=O)c2cccc(OC)c2)c1 | inconclusive: -32.3% [inhibitor] | 
46 | CCn1c(SCC(=O)N2CCN(c3ccc(Cl)cc3)CC2)nc2ccccc2c1=O | inconclusive: -35.4% [inhibitor] | 

Source: PubChem BioAssay AID686979 (National Center for Advancing Translational Sciences (NCATS), 2013)
